# Results as given in the supplement of paper PMC4166925.
# ± gives the standard deviation of the averaged measurements. Over roughly 33,000 sequences, “E-score (dimensionless, -0.5 to 0.5)” has its median near -0.049; the highest 2% begin near 0.37. This is one part of the list.
# System: T1, PmTbr T-box DNA-binding domain (GST fusion)
# T1 sequence: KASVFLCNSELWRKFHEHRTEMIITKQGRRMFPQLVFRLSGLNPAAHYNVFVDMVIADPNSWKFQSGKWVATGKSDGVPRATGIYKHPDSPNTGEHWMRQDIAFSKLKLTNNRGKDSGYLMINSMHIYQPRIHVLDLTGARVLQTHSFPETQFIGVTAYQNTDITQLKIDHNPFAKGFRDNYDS
# Assay: PBM E-score of 8-mer (E-score (dimensionless, -0.5 to 0.5)); Tbr is Tbrain of the sea star Patiria miniata (Pm) or the sea urchin Strongylocentrotus purpuratus (Sp); higher = stronger binding preference; most listed sequences are background and not binding sites
# Settings: the construct has about 5 more residues each side
# Description: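 Universal protein-binding microarray (Agilent AMADID 016060, 60-bp probes with a 35-bp variable region) incubated with 200 nM GST-fused Patiria miniata Tbr T-box DNA-binding domain (residues 272-466) in PBS pH 7.5. Scored for every ungapped 8-mer (given with its reverse complement) by the Universal PBM Analysis Suite as E-score (modified Wilcoxon-Mann-Whitney enrichment, range -0.5 to 0.5; >0.45 counts as bound) and Z-score of median probe intensity. Two replicate arrays (datasets 1 and 2).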
row,Sequence,PBM E-score of 8-mer
1,ACGTGGGA,0.141 ± 0.018
2,AGGCTATC,-0.0954 ± 0.03
3,AGAGGTTA,-0.0801 ± 0.022
4,AATCACCG,0.0811 ± 0.036
5,AATAGGAA,-0.191 ± 0.036
6,TGCCGAAA,0.161 ± 0.01
7,CCGCTATA,0.106 ± 0.078
8,GTAGCCAA,-0.113 ± 0.016
9,CCAGAGAG,-0.146 ± 0.063
10,CGCTGGCC,-0.166 ± 0.0028
11,CGAGAGTA,0.0479 ± 0.055
12,AGCAGCTG,0.133 ± 0.0056
13,AGTATAAG,-0.0609 ± 0.081
14,CGACAGTC,0.163 ± 0.04
15,GTAGGCGA,0.085 ± 0.03
16,AAACCGTT,0.0978 ± 0.04
17,ATAAGATA,-0.215 ± 0.052
18,CAGTGTGC,0.0644 ± 0.04
19,ACACTCCG,0.3818 ± 0.0019
20,CAGAGTGA,-0.0102 ± 0.038
21,AGGATGGC,-0.00084 ± 0.054
22,CTCATTGA,0.103 ± 0.074
23,AAGACCAC,-0.0744 ± 0.025
24,AACTCGAT,-0.0662 ± 0.057
25,CGATAACG,0.148 ± 0.034

row,Sequence,PBM E-score of 8-mer
1,ACCAAAAT,0.032 ± 0.06
2,CATGCATC,-0.167 ± 0.031
3,CTCAAGTA,0.061 ± 0.086
4,ACCCCCCC,-0.264 ± 0.015
5,ACCCCGGC,0.0962 ± 0.055
6,CAGATACA,0.0286 ± 0.039
7,AGGCCAGC,-0.195 ± 0.0041
8,GATAACGC,0.246 ± 0.0034
9,CCTGCGGA,0.0101 ± 0.014
10,TAGGTACA,-0.243 ± 0.019
11,CAACATCA,0.0511 ± 0.053
12,CGCTGCCA,0.173 ± 0.0071
13,ACGTTTAT,-0.0132 ± 0.022
14,AGCAGACG,0.00804 ± 0.011
15,GTCTTTGA,-0.167 ± 0.02
16,CCACGATC,0.00487 ± 0.013
17,GATGAGGA,-0.1802 ± 0.0013
18,AGGCGTTC,0.0817 ± 0.053
19,ATTCGAGC,-0.1667 ± 0.00059
20,GTATGAAA,-0.19 ± 0.032
21,TATAGACA,-0.131 ± 0.012
22,GGATTGAA,-0.13 ± 0.024
23,GGGGGTAA,-0.162 ± 0.1
24,ACAGGGTA,-0.172 ± 0.0098
25,GGGGGGGA,-0.22 ± 0.043

row,Sequence,PBM E-score of 8-mer
1,AAGTAACG,0.0201 ± 0.024
2,AAGTTAGT,-0.103 ± 0.021
3,GGGGACAA,-0.106 ± 0.041
4,CACGAGTA,-0.111 ± 0.046
5,AACTACTG,-0.0906 ± 0.028
6,GAATACGA,-0.0345 ± 0.0053
7,TCACATGA,0.085 ± 0.012
8,ATGGATAG,-0.237 ± 0.045
9,ATAGACAA,-0.196 ± 0.0023
10,AGTTGCGC,0.0703 ± 0.035
11,AACAGGGT,-0.0372 ± 0.006
12,CCCCTGCC,-0.321 ± 0.078
13,AAAAGGGT,-0.144 ± 0.075
14,TCGGATAA,-0.149 ± 0.058
15,TCTTATAA,-0.0434 ± 0.07
16,ATCGCCGA,0.0247 ± 0.019
17,AGTCCCCA,-0.202 ± 0.08
18,CGGTCAGA,-0.204 ± 0.0038
19,CGCGTAAC,0.102 ± 0.012
20,ATTAAAGC,-0.183 ± 0.026
21,CAGCGCTC,-0.116 ± 0.041
22,TCACTCCA,0.14 ± 0.0044
23,CTTCGCGA,0.277 ± 0.011
24,CGTTATAA,0.051 ± 0.077
25,TCAGGTAA,0.035 ± 0.03

row,Sequence,PBM E-score of 8-mer
1,AGCAGTTC,-0.00504 ± 0.017
2,AAATGGAC,-0.0943 ± 0.019
3,AGGCCATC,-0.336 ± 0.035
4,ATCAGCCA,-0.0439 ± 0.0057
5,TACGGGGA,-0.063 ± 0.011
6,AGACTGTG,0.0764 ± 0.054
7,CTAATGTC,0.0957 ± 0.014
8,ATATCCGC,-0.0252 ± 0.0053
9,CAAAAAGG,0.0395 ± 0.033
10,AGTTGTTC,-0.04 ± 0.043
11,GTACGGAA,-0.0981 ± 0.021
12,ATATCGGA,0.00895 ± 0.0044
13,CAGCCTGG,-0.00531 ± 0.032
14,CTCCTACC,-0.141 ± 0.046
15,TACCCGTA,-0.193 ± 0.13
16,CTCCATTC,-0.243 ± 0.042
17,CACAGTAC,-0.0516 ± 0.046
18,CTACGGTC,-0.289 ± 0.012
19,AAATCATT,-0.12 ± 0.05
20,CCCTTTTC,-0.0658 ± 0.04
21,AGAATCCC,-0.159 ± 0.059
22,CTCGGGGC,-0.133 ± 0.042
23,ATTGCTCC,-0.0474 ± 0.052
24,CACAACAC,0.387 ± 0.02
25,CAGTCCGG,-0.307 ± 0.0042

row,Sequence,PBM E-score of 8-mer
1,CATAGGCG,0.173 ± 0.015
2,TACACCTA,0.371 ± 0.026
3,GTATAGCA,0.0288 ± 0.024
4,CCTTCCAA,-0.197 ± 0.062
5,GGGCAAAA,-0.0896 ± 0.025
6,ACGGGCAT,-0.225 ± 0.076
7,GCAGGGAC,-0.209 ± 0.0062
8,GAACGCTA,0.0135 ± 0.049
9,GCTAGAGC,-0.058 ± 0.098
10,CCGGTGCC,-0.127 ± 0.01
11,AACCCGGA,-0.17 ± 0.016
12,ATGCCATC,-0.169 ± 0.017
13,ACCTAGCC,0.00247 ± 0.015
14,AGGCTGTG,0.0477 ± 0.095
15,GTTCAGTA,-0.187 ± 0.053
16,ACGCGGTA,0.199 ± 0.0081
17,GCATATAC,-0.081 ± 0.0014
18,AACAGACC,-0.0784 ± 0.076
19,CAACTCTG,0.16 ± 0.08
20,CTCGGATC,-0.166 ± 0.023
21,CGTTATCC,-0.058 ± 0.009
22,CCTGACCG,-0.0873 ± 0.02
23,AAAGATTT,-0.0448 ± 0.019
24,CATTCGCC,-0.0177 ± 0.044
25,CCCAAAAA,-0.143 ± 0.014

row,Sequence,PBM E-score of 8-mer
1,TAATCGTA,-0.114 ± 0.092
2,AGAGGATC,-0.395 ± 0.011
3,TCCTGAGA,-0.138 ± 0.031
4,AAGTAATA,-0.192 ± 0.063
5,ACCTAATG,0.0898 ± 0.0038
6,CCGCCTAC,-0.126 ± 0.028
7,GCACACAC,0.219 ± 0.039
8,GTCCACAA,0.03973 ± 0.00023
9,CCAAGAAC,-0.112 ± 0.002
10,AGTTCAAT,0.00694 ± 0.04
11,TTAGCTAA,0.0454 ± 0.0036
12,ACTACAAA,-0.0762 ± 0.1
13,ATTGCGTG,0.0323 ± 0.0015
14,ACGATCCG,-0.0368 ± 0.073
15,ACCACAAG,0.0391 ± 0.13
16,CGGTCCGC,0.014 ± 0.065
17,ATGTCGAG,0.0375 ± 0.013
18,GGTCGAGA,-0.252 ± 0.058
19,CACCTACA,0.407 ± 0.013
20,ATTAGATC,-0.277 ± 0.047
21,GCAAGCTA,-0.088 ± 0.0098
22,AACTGACT,-0.179 ± 0.03
23,GCGTACAC,-0.0608 ± 0.033
24,ATCGGATG,-0.0868 ± 0.012
25,CTTGCAGC,0.0487 ± 0.012

row,Sequence,PBM E-score of 8-mer
1,AACGTAAG,-0.0227 ± 0.11
2,GATTCTGA,-0.148 ± 0.03
3,ATCTTTAC,-0.189 ± 0.0031
4,CAATACTG,-0.151 ± 0.016
5,ACTCTACT,0.0128 ± 0.024
6,ACGACGAA,0.0979 ± 0.0076
7,AGAGAAGA,-0.186 ± 0.04
8,CCCCCAGA,-0.116 ± 0.043
9,TTGAAAAA,-0.0733 ± 0.07
10,AAAGTCTT,-0.174 ± 0.002
11,AACTTATG,-0.216 ± 0.013
12,CGTAATTC,-0.193 ± 0.014
13,ATTGCGTC,-0.231 ± 0.099
14,CACCCAAC,0.255 ± 0.025
15,ACTTGCAG,0.211 ± 0.0046
16,CTTAACCC,-0.0938 ± 0.018
17,ATAAGCTA,-0.0827 ± 0.085
18,CGCCAGTC,0.0298 ± 0.11
19,ACCTACTC,-0.0258 ± 0.091
20,AGCCGGCC,-0.157 ± 0.0064
21,AAGCTTGA,-0.0925 ± 0.025
22,AAGTCAGA,-0.144 ± 0.0029
